According to PubChem BioAssay (EPA / NIEHS):
This list was built around the results that the source calls inconclusive (neither active nor inactive); the mix of calls is not that of the screen. A potency beside an inconclusive call is a rough fit, not a confirmed value. Activity calls are given as the source filed them. How the source made its calls: active means hit-call score of the fitted dose curve at least 0.9, where 1 is the maximum; inconclusive means response in the unintended direction; inactive means score below 0.9.

read-out: Glyceraldehyde-3-phosphate dehydrogenase (Homo sapiens) (UniProt P04406); assay: CLD_GAPDH_24hr: CellzDirect (CLD) Gene Expression Assay for Baseline Control (Glyceraldehyde 3-phosphate dehydrogenase) at 24 hours (AID 2283692)
Protocol: CLD_24hr is a cell-based, multiplexed-readout assay that uses hepatocyte, a human liver primary cell, with measurements taken at 24 hours after chemical dosing in a 96-well plate.CLD_GAPDH_24hr is one of 16 assay component(s) measured or calculated from the CLD_24hr assay. It is designed to make measurements of mRNA induction, a form of inducible reporter, as detected with chemiluminescence signals by Quantitative Nuclease Protection Assay (qNPA) technology.Data from the assay component CLD_GAPDH_24hr was analyzed at the endpoint, CLD_GAPDH_24hr, in the positive analysis fitting direction relative to DMSO as the negative control and baseline of activity. Using a type of inducible reporter, gain-of-signal activity can be used to understand changes in the reporter gene as they relate to the gene GAPDH. Furthermore, this assay endpoint can be referred to as a secondary readout, because this assay has produced multiple assay endpoints where this one serves a background control function. To generalize the intended target to other relatable targets, this assay endpoint is annotated to the background measurement intended target family, where subfamily is baseline control.
Human hepatocyte cultures were treated daily for two consecutive days with fresh dosing solutions containing appropriate concentrations of the 320 ToxCast chemicals (chemical identities were blinded to CellzDirect and other ToxCast collaborators), vehicle control (0.2% DMSO), and positive control inducers as summarized in Table 1. Due to the large number of treatment groups and chemicals examined, the ToxCast chemicals were divided into two groups (spanning two independent cultures of hepatocytes from separate donor preparations (Hu778: ToxCast plates 1 and 2; Hu776: ToxCast plates 3 and 4). Each preparation of human hepatocyte cultures was treated with respective vehicle control, medium only control, set of six positive controls/reference chemicals for the five hepatic receptor pathways, and a subset of eight of the ToxCast chemicals (indoxacarb, pyrithiobac-sodium, norflurazon, cyhalofop-butyl, methomyl, thiram, acetochlor, and propiconazole). These replicate data, coupled with internal replicates designed within the blinded ToxCast chemical library, provided additional data to evaluate interindividual differences between hepatocyte preparations and their potential impact on chemical profiles.Cell morphology and integrity were evaluated using phase-contrast microscopy as an indicator of hepatocyte cell health (Tyson & Green, 1987). Cultures for each treatment group (i.e., media, vehicle [0.2% DMSO], positive control inducers [multiple concentrations], and the ToxCast chemicals [multiple concentrations]) were observed and cell morphology was assessed relative to vehicle control cultures at each harvest time point (0, 6, 24, or 48 h). […] Images were evaluated at the conclusion of the study to assess changes in cell integrity and account for the effects of chemical exposure on uncharacteristic changes in concentration-dependent gene expression profiles. The results from these determinations of apparent cytotoxicity were annotated (yes/no) alongside the corresponding qNPA data for reference.At the conclusion of each treatment period, hepatocyte cultures (96-well) were washed with 1 volume of HBSS, lysed by addition of 25 ul ArrayPlate lysis buffer (HTG, Tucson, AZ), and 70 ul/well of Denaturation Oil, denatured by incubation at 95C for 10 min, and frozen at approximately -70C until analysis by nuclease protection assay (qNPA) (Roberts et al., 2007). For qNPA analysis, cell lysates were thawed at 50C for approximately 30 min, qNPA probes were added, and samples were incubated at 95C for 10 min to begin the detection process by denaturing the target RNA, dissociating the duplexes and secondary structure hybridization. At the conclusion of the hybridization period, S1 nuclease reagent was added to each sample to digest all nonprotected nucleotides at 50C for 60-90 min. […]

UniProt P04406, sequence (P04406 whole entry, looked up): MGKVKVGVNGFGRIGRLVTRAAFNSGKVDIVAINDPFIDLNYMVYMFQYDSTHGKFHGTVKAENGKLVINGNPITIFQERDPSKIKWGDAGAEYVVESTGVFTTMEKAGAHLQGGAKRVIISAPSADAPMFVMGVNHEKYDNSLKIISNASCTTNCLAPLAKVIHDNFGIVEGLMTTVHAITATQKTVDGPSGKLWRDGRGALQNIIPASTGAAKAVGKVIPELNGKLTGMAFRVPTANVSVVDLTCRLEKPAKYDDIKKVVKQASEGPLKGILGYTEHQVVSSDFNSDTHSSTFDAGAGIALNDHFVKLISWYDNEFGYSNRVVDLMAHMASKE

| SMILES | AC50 | outcome |
| --- | --- | --- |
| CCOP(=S)(Oc1cnc(C(C)(C)C)nc1)OC(C)C (stereo not given) | inconclusive: 4.04 µM | – |
| CCC(CC)Nc1c([N+](=O)[O-])cc(C)c(C)c1[N+](=O)[O-] | inconclusive: 20 µM | – |
| COc1ccc(C(c2ccc(OC)cc2)C(Cl)(Cl)Cl)cc1 | inconclusive: 20 µM | – |
| C#CCOS(=O)OC1CCCCC1Oc1ccc(C(C)(C)C)cc1 (stereo not given) | inconclusive: 20 µM | – |
| COC(=O)C(C)Oc1ccc(Oc2ccc(Cl)cc2Cl)cc1 (stereo not given) | inconclusive: 4.41 µM | inactive |
| CON(C)C(=O)Nc1ccc(Cl)c(Cl)c1 | inconclusive: 20 µM | – |
| C#CCN1C(=O)COc2cc(F)c(N3C(=O)C4=C(CCCC4)C3=O)cc21 | – | inactive |
| CC(C)(C)C(=O)C(Oc1ccc(Cl)cc1)n1cncn1 (stereo not given) | inconclusive: 20 µM | – |
| O=C(O)COc1nc(Cl)c(Cl)cc1Cl | – | inactive |
| COP(=S)(OC)Oc1ccc([N+](=O)[O-])cc1 | inconclusive: 3.97 µM | – |
| CN(C)NC(=O)CCC(=O)O | – | inactive |
| CC1(C)C(C(=O)OC(C#N)c2cccc(Oc3ccccc3)c2)C1(C)C (stereo not given) | inconclusive: 9.39 µM | – |
| CCOP(=O)(OCC)Oc1nc(Cl)c(Cl)cc1Cl | – | inactive |
| C=CCC1=C(C)C(OC(=O)C2C(C=C(C)C)C2(C)C)CC1=O (stereo not given) | – | inactive |
| COC(=O)NC(=S)Nc1ccccc1NC(=S)NC(=O)OC | inconclusive: 20 µM | – |
| CCN(CC)C(=O)C(C)Oc1cccc2ccccc12 (stereo not given) | inconclusive: 7.03 µM | – |
| CC(C)(C)C(O)C(Oc1ccc(Cl)cc1)n1cncn1 (stereo not given) | inconclusive: 4 µM | – |
| COc1nc(C)nc(NC(=O)NS(=O)(=O)c2ccccc2Cl)n1 | inconclusive: 20 µM | inactive |
| COc1nc(NC(C)C)nc(NC(C)C)n1 | inconclusive: 3.97 µM | – |

| SMILES | AC50 | outcome |
| --- | --- | --- |
| CC[C@H](C)[C@H]1O[C@]2(C=C[C@@H]1C)C[C@@H]1C[C@@H](C/C=C(\C)[C@@H](O[C@H]3C[C@H](OC)[C@@H](O[C@H]4C[C@H](OC)[C@@H](O)[C@H](C)O4)[C@H](C)O3)[C@@H](C)/C=C/C=C3\CO[C@@H]4[C@H](O)C(C)=C[C@@H](C(=O)O1)[C@]34O)O2 (tested in a mixture with another compound) | inconclusive: 3.97 µM | – |
| Oc1ccc(Cl)cc1Cc1ccccc1 | – | inactive |
| CSC1=N[C@@](C)(c2ccccc2)C(=O)N1Nc1ccccc1 | inconclusive: 3.97 µM | – |
| Nc1c(Cl)c(Cl)nc(C(=O)O)c1Cl | inconclusive: 20 µM | – |
| CN(C)c1nc(=O)n(C2CCCCC2)c(=O)n1C | – | inactive |
| CCNP(=S)(OC)O/C(C)=C/C(=O)OC(C)C (stereo not given) | inconclusive: 8.76 µM | – |
| CCCN(CCC)c1c([N+](=O)[O-])cc(C(F)(F)F)cc1[N+](=O)[O-] | inconclusive: 20 µM | – |
| CSc1nnc(C(C)(C)C)c(=O)n1N | – | inactive |
| COP(=O)(OC)SCn1c(=O)oc2cc(Cl)cnc21 | inconclusive: 20 µM | – |
| CCOC(=O)C(C)OC(=O)c1cc(Oc2ccc(C(F)(F)F)cc2Cl)ccc1[N+](=O)[O-] (stereo not given) | inconclusive: 20 µM | – |
| O=[N+]([O-])c1cc(C(F)(F)F)c(Cl)c([N+](=O)[O-])c1Nc1ncc(C(F)(F)F)cc1Cl | inconclusive: 1.89 µM | – |
| CC[C@H](C)[C@H]1O[C@]2(C=C[C@@H]1C)C[C@@H]1C[C@@H](C/C=C(\C)[C@@H](O[C@H]3C[C@H](OC)[C@@H](O[C@H]4C[C@H](OC)[C@@H](NC)[C@H](C)O4)[C@H](C)O3)[C@@H](C)/C=C/C=C3\CO[C@@H]4[C@H](O)C(C)=C[C@@H](C(=O)O1)[C@]34O)O2 | – | inactive |
| O=C(O)CCCOc1ccc(Cl)cc1Cl | inconclusive: 20 µM | – |
| CCCN(CCOc1c(Cl)cc(Cl)cc1Cl)C(=O)n1ccnc1 | inconclusive: 1.89 µM | – |
| CCOc1nc(F)cc2nc(S(=O)(=O)Nc3c(Cl)cccc3Cl)nn12 | – | inactive |
| CC1(C)CCC(=Cc2ccc(Cl)cc2)C1(O)Cn1cncn1 (stereo not given) | inconclusive: 6.18 µM | – |
| CO/N=C(/C1=NOCCO1)c1ccccc1Oc1ncnc(Oc2ccccc2Cl)c1F | – | inactive |
| CCC(=NOC/C=C/Cl)C1=C(O)CC(C2CCOCC2)CC1=O (stereo not given) | – | inactive |
| COP(=S)(OC)SCn1nnc2ccccc2c1=O | inconclusive: 12.1 µM | – |
